This is one part of the list. At the low end of the ranking, values are background and their order means little.

The subject of the assay is MYC (p64) + MAX (p21), in MYC:MAX. Nature of the assay: protein-binding microarray (anti-MAX antibody). As to conditions: PBM: 15 mM Tris-HCl pH 7.5, 100 mM KCl, 0.075% NP40, 7.5 mM beta-mercaptoethanol, 375 ng/ul BSA, 8 ng/ul poly(dA-dT):(dA-dT), 550 ng complex, 60 min, room …; high values mean tight binding; double strand, one strand shown; sequences stand for … in CCGGC…TTAATAGCTAAGATTACTATATCGACG
For the sequence TGAGCACTTGTA, the binding signal (log2 normalized fluorescence) is 0.0199. In the case of TGAACCTGGGTT, the binding signal (log2 normalized fluorescence) was determined as 0.175.

Regarding TGAGTCGGAGTA, the binding signal (log2 normalized fluorescence) was -0.235.

On to TGAACGGCTGTA, for which the binding signal (log2 normalized fluorescence) is 0.0761. On to TCACACGAGGTT, for which the binding signal (log2 normalized fluorescence) amounted to 0.866. Regarding TGACACGCTATA, the binding signal (log2 normalized fluorescence) is 0.447.

As for TGACCATTCGTA, the binding signal (log2 normalized fluorescence) is 0.156.

As to TGATGGGCCGTA, the binding signal (log2 normalized fluorescence) worked out at 0.108.

Regarding TGATATATTGTA, the binding signal (log2 normalized fluorescence) is -0.186.

Take TGAGTCGTCGTA: the binding signal (log2 normalized fluorescence) is -0.0597. Consider TGATGAGGTGTA, for which the binding signal (log2 normalized fluorescence) was -0.000883.

Consider TGAAATAAAGTA, for which the binding signal (log2 normalized fluorescence) came to 0.0129. TGACTCTTTGTA: the binding signal (log2 normalized fluorescence) amounted to 0.0122. In the case of TGAATACATGTA, the binding signal (log2 normalized fluorescence) stood at 0.189. For TCAAACGTGGTA the value was 0.603; for TGACTAGATGTA, 0.0946; for TGAATAATTGTA, -0.0392. As to TGACCAGGAGTA, the binding signal (log2 normalized fluorescence) stood at 0.27. For TGACTCGCGGTA, the binding signal (log2 normalized fluorescence) was determined as 0.365. Regarding TGCCAGGTGGTA, the binding signal (log2 normalized fluorescence) amounted to 0.528. On to TGAGCCCATGTA, for which the binding signal (log2 normalized fluorescence) amounted to 0.328. For the sequence TGACCTGGTGTA, the binding signal (log2 normalized fluorescence) came to 0.367. The same measure for TGAGTTATAGTA: -0.0368; for TGACACGTAGTA: 0.415. Regarding TGAGTCATGGTA, the binding signal (log2 normalized fluorescence) is 0.231. TGAGGTGACGTA: the binding signal (log2 normalized fluorescence) was 0.0346. As for TGAGTCGCTGTA, the binding signal (log2 normalized fluorescence) turned out to be 0.0603. For the sequence TGAGGGAGGGTA, the binding signal (log2 normalized fluorescence) was 0.432. As to TGACCAAGGGTA, the binding signal (log2 normalized fluorescence) was -0.113. On to TGACCTGTGGTA, for which the binding signal (log2 normalized fluorescence) is 0.234. For TGAGGATTGGTA the value was -0.0366; for TGAAACAAAGTA, -0.0485. For TGAAAACATGTA, the binding signal (log2 normalized fluorescence) amounted to 0.34. Regarding TGAACGATAGTA, the binding signal (log2 normalized fluorescence) was found to be 0.00148. In the case of TGACACGTGCCT, the binding signal (log2 normalized fluorescence) was determined as 0.722. With TGAATTCGAGTA, the binding signal (log2 normalized fluorescence) is -0.0175. For TAGCACGTGGCA the value was 0.803; for TGACTAGGAGTA, -0.187; for TGATCGATGGTA, 0.0768. Consider TGACACGTACAA, for which the binding signal (log2 normalized fluorescence) was 0.498. The same measure for TGACGATTGGTA: -0.0732; for TGATTCTGCGTA: -0.063. For TGAGAGGGCGTA, the binding signal (log2 normalized fluorescence) came out at 0.0732.

For TGATGCATGGTA, the binding signal (log2 normalized fluorescence) was found to be 0.364. Regarding TGACCAGCGGTA, the binding signal (log2 normalized fluorescence) stood at 0.0533.

TGACGAGCAGTA: the binding signal (log2 normalized fluorescence) stood at 0.115. In the case of TGTTACGGGGTA, the binding signal (log2 normalized fluorescence) worked out at 0.148. The same measure for TGATAAATCGTA: -0.115. Consider AGACCCCTGGTA, for which the binding signal (log2 normalized fluorescence) was found to be 0.184.

With TGAATAGTAGTA, the binding signal (log2 normalized fluorescence) is -0.147. As to CTGCACGTGGTA, the binding signal (log2 normalized fluorescence) was 0.875. For TGATGTTGGGTA the value was 0.0135; for TGAAGAGGCGTA, -0.105; for TGAGAGATCGTA, -0.0646. With TGAACCCCAGTA, the binding signal (log2 normalized fluorescence) was determined as 0.161. In the case of CGACATGTAGTA, the binding signal (log2 normalized fluorescence) is 0.368. For TGAACCTGGGTA the value was 0.00556; for TGATAAAGAGTA, -0.219. For TGAAGCCCAGTA, the binding signal (log2 normalized fluorescence) came to 0.0763.

In the case of TGAGTGACTGTA, the binding signal (log2 normalized fluorescence) came out at 0.0162. TGAGCGATCGTA: the binding signal (log2 normalized fluorescence) is -0.067. TGATAGAACGTA: the binding signal (log2 normalized fluorescence) was -0.0834. Consider TGAATAACCGTA, for which the binding signal (log2 normalized fluorescence) was -0.12. As for TGATAGAAGGTA, the binding signal (log2 normalized fluorescence) is -0.0427. For TGAGAAGTTGTA, the binding signal (log2 normalized fluorescence) is -0.0217. On to TGAACTTCCGTA, for which the binding signal (log2 normalized fluorescence) was 0.111. Regarding ATTCACGTGGTA, the binding signal (log2 normalized fluorescence) is 0.958. Turning to TGACGGATCGTA, the binding signal (log2 normalized fluorescence) came out at 0.00109. The same measure for TGAATAATCGTA: -0.0572.

Turning to TCCCACATGGTA, the binding signal (log2 normalized fluorescence) was 0.662.

In the case of TGACCTGTTGTA, the binding signal (log2 normalized fluorescence) turned out to be 0.216. In the case of TGAATTAGCGTA, the binding signal (log2 normalized fluorescence) is -0.0202. As for TGATTTCTGGTA, the binding signal (log2 normalized fluorescence) was -0.128. On to TGAGGACCCGTA, for which the binding signal (log2 normalized fluorescence) was 0.0118.

On to TGATAGGTGGTA, for which the binding signal (log2 normalized fluorescence) is -0.0359. For TTAAAGGAGCAC the value was 0.18; for TGATGGACGGTA, 0.0655; for TGATGGAGTGTA, 0.0616. As to TAGTACGTGGTA, the binding signal (log2 normalized fluorescence) was 0.336. As for TCACACGTAGGA, the binding signal (log2 normalized fluorescence) was determined as 0.457. The same measure for TGAGTGCAGGTA: 0.0764. The same measure for TGACCTTAGGTA: 0.0902. TGAGTAGCTGTA: the binding signal (log2 normalized fluorescence) is -0.0992. Turning to TGATGACGTGTA, the binding signal (log2 normalized fluorescence) stood at 0.245.

TGACTAGCGGTA: the binding signal (log2 normalized fluorescence) was found to be 0.00614. The same measure for TGAGTCGATGTA: -0.0631; for TGATTACGCGTA: 0.0729. With TGATTATAAGTA, the binding signal (log2 normalized fluorescence) was -0.177.

Values taken from paper PMC5515408.
